Source: PMC8113725, “Structure–activity relationship of ipglycermide binding to phosphoglycerate mutases” (The Journal of Biological Chemistry, 2021)

Tests used:
O. volvulus iPGM = O. volvulus iPGM (Onchocerca volvulus, UniProt I6LDA6); test: biochemical; conditions: Ov iPGM Ave IC50 (M), 5 nM enzyme
B. malayi iPGM = B. malayi iPGM (Brugia malayi, UniProt Q4VWF8); test: biochemical; conditions: Bm iPGM Ave IC50 (M), 5 nM enzyme
C. elegans iPGM = C. elegans iPGM (Caenorhabditis elegans, UniProt G5EFZ1); test: PGM enzyme assay (enolase–pyruvate kinase coupled, Kinase-Glo Plus end point) and IC50 determination; format: biochemical; conditions: Ce iPGM Ave IC50 (M), 5 nM enzyme
[1] = Supplementary Table 4a, Ce-2 analogs, average of N=2-3 independent experiments
[2] = Supplementary Table 4b, Ce-2d analogs

Sequence of UniProt Q4VWF8 (Q4VWF8 whole entry): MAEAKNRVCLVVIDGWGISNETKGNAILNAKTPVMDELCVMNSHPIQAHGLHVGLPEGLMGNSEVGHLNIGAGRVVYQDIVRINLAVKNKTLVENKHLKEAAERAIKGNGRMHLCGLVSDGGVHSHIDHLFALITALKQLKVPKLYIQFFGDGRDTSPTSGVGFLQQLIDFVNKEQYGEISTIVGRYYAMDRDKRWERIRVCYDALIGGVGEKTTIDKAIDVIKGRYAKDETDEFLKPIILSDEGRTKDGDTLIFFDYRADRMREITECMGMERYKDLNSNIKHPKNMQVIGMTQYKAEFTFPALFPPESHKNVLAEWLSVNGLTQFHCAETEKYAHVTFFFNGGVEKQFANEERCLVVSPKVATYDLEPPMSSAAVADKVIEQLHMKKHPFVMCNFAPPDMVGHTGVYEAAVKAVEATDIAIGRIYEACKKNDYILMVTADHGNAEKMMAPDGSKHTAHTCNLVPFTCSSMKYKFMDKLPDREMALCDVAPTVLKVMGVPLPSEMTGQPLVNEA
Sequence of UniProt I6LDA6 (I6LDA6 whole entry): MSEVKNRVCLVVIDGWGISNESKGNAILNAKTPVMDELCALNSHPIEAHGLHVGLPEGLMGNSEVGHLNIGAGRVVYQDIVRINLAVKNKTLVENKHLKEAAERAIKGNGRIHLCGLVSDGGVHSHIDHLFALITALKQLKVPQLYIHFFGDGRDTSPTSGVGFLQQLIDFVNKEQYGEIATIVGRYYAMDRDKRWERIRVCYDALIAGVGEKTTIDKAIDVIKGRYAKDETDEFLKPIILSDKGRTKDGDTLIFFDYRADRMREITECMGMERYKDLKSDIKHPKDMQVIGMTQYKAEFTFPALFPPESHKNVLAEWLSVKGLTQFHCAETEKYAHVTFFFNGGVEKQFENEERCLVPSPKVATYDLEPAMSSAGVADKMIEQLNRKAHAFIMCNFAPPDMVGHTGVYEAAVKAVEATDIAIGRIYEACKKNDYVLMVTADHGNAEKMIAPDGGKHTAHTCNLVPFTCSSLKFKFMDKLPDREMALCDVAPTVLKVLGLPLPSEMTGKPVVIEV

Compound	IC50 (O. volvulus iPGM; [1]) [M]	IC50 (B. malayi iPGM; [1]) [M]	IC50 (C. elegans iPGM; [1]) [M]	IC50 (O. volvulus iPGM; [2]) [M]	IC50 (B. malayi iPGM; [2]) [M]	IC50 (C. elegans iPGM; [2]) [M]
CC(C)C[C@H](NC(=O)[C@H](Cc1ccc(F)cc1)NC(=O)[C@@H]1CSCC(=O)N[C@H](Cc2ccc(O)cc2)C(=O)N[C@@H](CC(=O)O)C(=O)N[C@@H](Cc2ccc(O)cc2)C(=O)N2CCC[C@H]2C(=O)NCC(=O)N[C@@H](CC(=O)O)C(=O)N[C@@H](Cc2ccc(O)cc2)C(=O)N1)C(=O)N[C@@H](Cc1ccc(O)cc1)C(=O)NCC(=O)N[C@H](C(=O)N[C@@H](CS)C(N)=O)[C@@H](C)O [Ce-2 Y9(4F)F] ({CH2CO}-[dY]DYPGDYC[Phe(4-F)]LYGTC-NH2; thioether N-8)	3.84e-09	3.31e-09	1.79e-09	–	–	–
CC(C)C[C@H](NC(=O)[C@H](Cc1ccc(F)cc1)NC(=O)[C@@H]1CSCC(=O)N[C@H](Cc2ccc(O)cc2)C(=O)N[C@@H](CC(=O)O)C(=O)N[C@@H](Cc2ccc(O)cc2)C(=O)N2CCC[C@H]2C(=O)NCC(=O)N[C@@H](CC(=O)O)C(=O)N[C@@H](Cc2ccc(O)cc2)C(=O)N1)C(=O)N[C@@H](Cc1ccc(O)cc1)C(N)=O [Ce-2d Y9(4F)F]	–	–	–	7.64e-07	2.33e-07	3.8e-08
CC(C)C[C@H](NC(=O)[C@H](Cc1ccc(O)cc1)NC(=O)[C@@H]1CSCC(=O)N[C@H](Cc2ccc(O)cc2)C(=O)N[C@@H](CC(=O)O)C(=O)N[C@@H](Cc2ccc(O)cc2)C(=O)N2CCC[C@H]2C(=O)N[C@@H](CC(C)C)C(=O)N[C@@H](CC(=O)O)C(=O)N[C@@H](Cc2ccc(O)cc2)C(=O)N1)C(=O)N[C@@H](Cc1ccc(O)cc1)C(N)=O [Ce-2d G5L]	–	–	–	3.89e-06	1.47e-06	2.23e-08
CC(C)C[C@H](NC(=O)[C@H](Cc1ccc(O)cc1)NC(=O)[C@@H]1CSCC(=O)N[C@H](Cc2ccc(O)cc2)C(=O)N[C@@H](CC(=O)O)C(=O)N[C@@H](Cc2ccc(O)cc2)C(=O)N2CCC[C@H]2C(=O)NCC(=O)N[C@@H](CC(=O)O)C(=O)N[C@@H](Cc2c[nH]cn2)C(=O)N1)C(=O)N[C@@H](Cc1ccc(O)cc1)C(=O)NCC(=O)N[C@H](C(=O)NO)[C@@H](C)O [Ce-1 NHOH]	3.97e-09	4.73e-09	2.05e-09	–	–	–
CC(C)C[C@H](NC(=O)[C@H](Cc1ccc(O)cc1)NC(=O)[C@@H]1CSCC(=O)N[C@H](Cc2ccc(F)cc2)C(=O)N[C@@H](CC(=O)O)C(=O)N[C@@H](Cc2ccc(O)cc2)C(=O)N2CCC[C@H]2C(=O)NCC(=O)N[C@@H](CC(=O)O)C(=O)N[C@@H](Cc2ccc(O)cc2)C(=O)N1)C(=O)N[C@@H](Cc1ccc(O)cc1)C(N)=O [Ce-2d Y1D(4F)F]	–	–	–	6.39e-08	2.37e-08	2.9e-09
CC(C)C[C@H](NC(=O)[C@H](Cc1ccc(O)cc1)NC(=O)[C@@H]1CSCC(=O)N[C@H](Cc2ccc(O)cc2)C(=O)N[C@@H](CC(=O)O)C(=O)N[C@@H](Cc2ccc(F)cc2)C(=O)N2CCC[C@H]2C(=O)NCC(=O)N[C@@H](CC(=O)O)C(=O)N[C@@H](Cc2ccc(O)cc2)C(=O)N1)C(=O)N[C@@H](Cc1ccc(O)cc1)C(=O)NCC(=O)N[C@H](C(=O)N[C@@H](CS)C(N)=O)[C@@H](C)O [Ce-2 Y3(4F)F] ({CH2CO}-[dY]D[Phe(4-F)]PGDYCYLYGTC-NH2; thioether N-8)	2.1e-09	1.4e-09	1.56e-09	–	–	–
CC(C)C[C@H](NC(=O)[C@H](Cc1ccc(O)cc1)NC(=O)[C@@H]1CSCC(=O)N[C@H](Cc2ccc(O)cc2)C(=O)N[C@@H](CC(=O)O)C(=O)N[C@@H](Cc2ccc(O)cc2)C(=O)N[C@@H](C)C(=O)NCC(=O)N[C@@H](CC(=O)O)C(=O)N[C@@H](Cc2ccc(O)cc2)C(=O)N1)C(=O)N[C@@H](Cc1ccc(O)cc1)C(N)=O [Ce-2d P4A]	–	–	–	1.85e-07	3.66e-08	6.76e-09
CC(C)C[C@H](NC(=O)[C@H](Cc1ccc(O)cc1)NC(=O)[C@@H]1CSCC(=O)N[C@H](Cc2ccc(O)cc2)C(=O)N[C@@H](CC(=O)O)C(=O)N[C@@H](Cc2ccc(O)cc2)C(=O)N2CCC[C@H]2C(=O)NCC(=O)N[C@@H](CC(=O)O)C(=O)N[C@@H](Cc2ccc(O)cc2)C(=O)N1)C(=O)N[C@@H](Cc1ccc(O)cc1)C(=O)NCC(=O)NCC(=O)NO [Ce-2 T13G, C14NHOH]	2.02e-07	1.29e-07	4.96e-09	–	–	–
CC(C)C[C@H](NC(=O)[C@H](Cc1ccc(O)cc1)NC(=O)[C@@H]1CSCC(=O)N[C@H](Cc2ccc(O)cc2)C(=O)N[C@@H](CC(=O)O)C(=O)N[C@@H](Cc2ccc(O)cc2)C(=O)N2CCC[C@H]2C(=O)N[C@@H](CCC(N)=O)C(=O)N[C@@H](CC(=O)O)C(=O)N[C@@H](Cc2ccc(O)cc2)C(=O)N1)C(=O)N[C@@H](Cc1ccc(O)cc1)C(N)=O [Ce-2d G5Q]	–	–	–	1.3e-05	6.62e-06	1.19e-07
CC(C)C[C@H](NC(=O)[C@H](Cc1ccc(O)cc1)NC(=O)[C@@H]1CSCC(=O)N[C@H](Cc2ccc(O)cc2)C(=O)N[C@@H](C(C)C)C(=O)N[C@@H](Cc2ccc(O)cc2)C(=O)N2CCC[C@H]2C(=O)NCC(=O)N[C@@H](CC(=O)O)C(=O)N[C@@H](Cc2ccc(O)cc2)C(=O)N1)C(=O)N[C@@H](Cc1ccc(O)cc1)C(N)=O [Ce-2d D2V]	–	–	–	1.29e-06	4.55e-07	6.61e-08
CC[C@@H]1NC(=O)[C@@H](Cc2ccc(O)cc2)NC(=O)CSC[C@@H](C(=O)N[C@@H](Cc2ccc(O)cc2)C(=O)N[C@@H](CC(C)C)C(=O)N[C@@H](Cc2ccc(O)cc2)C(=O)NCC(=O)N[C@H](C(=O)N[C@@H](CS)C(N)=O)[C@@H](C)O)NC(=O)[C@H](Cc2ccc(O)cc2)NC(=O)[C@H](CC(=O)O)NC(=O)CNC(=O)[C@@H]2CCCN2C(=O)[C@H](Cc2ccc(O)cc2)NC1=O [Ce-2 D2Abu] ({CH2CO}-[dY][Abu]YPGDYCYLYGTC-NH2; thioether N-8)	2.24e-09	1.37e-09	1.85e-09	–	–	–
CC[C@H](C)[C@H](NC(=O)[C@H](Cc1ccc(O)cc1)NC(=O)[C@@H]1CSCC(=O)N[C@H](Cc2ccc(O)cc2)C(=O)N[C@@H](CC(=O)O)C(=O)N[C@@H](Cc2ccc(O)cc2)C(=O)N2CCC[C@H]2C(=O)NCC(=O)N[C@@H](CC(=O)O)C(=O)N[C@@H](Cc2ccc(O)cc2)C(=O)N1)C(=O)N[C@@H](Cc1ccc(O)cc1)C(N)=O [Ce-2d L10I]	–	–	–	1.32e-06	3.74e-07	2.67e-08
CC(C)C[C@H](NC(=O)[C@H](Cc1ccc(O)cc1)NC(=O)[C@@H]1CSCC(=O)N[C@H](Cc2ccc(O)cc2)C(=O)N[C@@H](CC(=O)O)C(=O)N[C@@H](Cc2ccc(O)cc2)C(=O)N[C@@H](C(C)C)C(=O)NCC(=O)N[C@@H](CC(=O)O)C(=O)N[C@@H](Cc2ccc(O)cc2)C(=O)N1)C(=O)N[C@@H](Cc1ccc(O)cc1)C(=O)NCC(=O)N[C@H](C(=O)N[C@@H](CS)C(N)=O)[C@@H](C)O [Ce-2 P4V]	2.96e-09	1.89e-09	2.17e-09	–	–	–
CC(C)C[C@H](NC(=O)[C@H](Cc1ccc(O)cc1)NC(=O)[C@@H]1CSCC(=O)N[C@H](Cc2ccc(O)cc2)C(=O)N[C@@H](CC(=O)O)C(=O)N[C@@H](Cc2ccc(O)cc2)C(=O)N2CCC[C@H]2C(=O)NCC(=O)N[C@@H](CC(=O)O)C(=O)N[C@@H](Cc2ccc(O)cc2)C(=O)N1)C(=O)N[C@@H](Cc1ccc(O)cc1)C(=O)NCCCC(=O)N[C@@H](CS)C(N)=O [Ce-2 [12-13]GABA]	4.02e-09	3.12e-09	1.49e-09	–	–	–
CC(C)C[C@H](NC(=O)[C@H](Cc1ccc(O)cc1)NC(=O)[C@@H]1CSCC(=O)N[C@H](Cc2ccc(O)cc2)C(=O)N[C@@H](CC(=O)O)C(=O)N[C@@H](Cc2ccc(O)cc2)C(=O)N2CCC[C@H]2C(=O)NCC(=O)N[C@@H](CC(=O)O)C(=O)N[C@@H](Cc2ccc(O)cc2)C(=O)N1)C(=O)N[C@@H](Cc1ccc(O)cc1)C(=O)NCC(=O)NCC(=O)N[C@@H](CS)C(N)=O [Ce-2 T13G]	1.61e-09	8.11e-10	1.49e-09	–	–	–
CCC[C@@H]1NC(=O)[C@@H](Cc2ccc(O)cc2)NC(=O)CSC[C@@H](C(=O)N[C@@H](Cc2ccc(O)cc2)C(=O)N[C@@H](CC(C)C)C(=O)N[C@@H](Cc2ccc(O)cc2)C(=O)NCC(=O)N[C@H](C(=O)N[C@@H](CS)C(N)=O)[C@@H](C)O)NC(=O)[C@H](Cc2ccc(O)cc2)NC(=O)[C@H](CC(=O)O)NC(=O)CNC(=O)[C@@H]2CCCN2C(=O)[C@H](Cc2ccc(O)cc2)NC1=O [Ce-2 D2Nva] ({CH2CO}-[dY][Nva]YPGDYCYLYGTC-NH2; thioether N-8)	2.2e-09	1.37e-09	1.69e-09	–	–	–
CC(C)C[C@H](NC(=O)[C@H](Cc1ccccc1)NC(=O)[C@@H]1CSCC(=O)N[C@H](Cc2ccc(O)cc2)C(=O)N[C@@H](CC(=O)O)C(=O)N[C@@H](Cc2ccc(O)cc2)C(=O)N2CCC[C@H]2C(=O)NCC(=O)N[C@@H](CC(=O)O)C(=O)N[C@@H](Cc2ccccc2)C(=O)N1)C(=O)N[C@@H](Cc1ccc(O)cc1)C(=O)NCC(=O)N[C@H](C(=O)N[C@@H](CS)C(N)=O)[C@@H](C)O [Ce-2 Y7F, Y9F] ({CH2CO}-[dY]DYPGDFCFLYGTC-NH2; thioether N-8)	2.36e-08	2.49e-08	2.02e-09	–	–	–
CC(C)C[C@H](NC(=O)[C@H](Cc1ccc(O)cc1)NC(=O)[C@@H]1CSCC(=O)N[C@H](Cc2ccc(O)cc2)C(=O)N[C@@H](CC(=O)O)C(=O)N[C@@H](Cc2ccc(O)cc2)C(=O)N2CCC[C@H]2C(=O)NCC(=O)N[C@@H](CC(=O)O)C(=O)N[C@@H](Cc2ccccc2)C(=O)N1)C(=O)N[C@@H](Cc1ccc(O)cc1)C(=O)NCC(=O)N[C@H](C(=O)N[C@@H](CS)C(N)=O)[C@@H](C)O [Ce-2 Y7F]	2.45e-09	1.46e-09	1.9e-09	–	–	–
CC(C)C[C@H](NC(=O)[C@H](CC(C)C)NC(=O)[C@H](Cc1ccc(O)cc1)NC(=O)[C@@H]1CSCC(=O)N[C@H](Cc2ccc(O)cc2)C(=O)N[C@@H](CC(=O)O)C(=O)N[C@@H](Cc2ccc(O)cc2)C(=O)N2CCC[C@H]2C(=O)NCC(=O)N[C@@H](CC(=O)O)C(=O)N[C@@H](Cc2ccc(O)cc2)C(=O)N1)C(N)=O [Ce-2d Y11L]	–	–	–	7.21e-07	1.89e-07	1.23e-08

Bridge positions count the residues as written; N and C are the ends. Square brackets hold non-standard residues; d marks the D form. Peptide text beside a SMILES is read from it. Phe(4-F) = N[C@@H](Cc1ccc(F)cc1)C(=O)O; Nva = CCC[C@H](N)C(=O)O; Abu = CC[C@H](N)C(=O)O
